For 111 compounds, z-score results are on record in PubChem BioAssay AID488969 (Vanderbilt High Throughput Screening Facility, 2010).

Structures are written as SMILES. Whole data set: some 110,000 compounds, median “z-score” near -0.1, cut for the highest 2% near 2. Some of the results follow.

This assay has as its target Metabotropic glutamate receptor 8 (Rattus norvegicus) (UniProt P70579). In words: mGluR8 Gi/Go-coupled signaling modulation – cell-based, rat, thallium flux, HTS, primary screen (AID 488969). As to conditions: HEK293 rat mGluR8, GIRK (G protein-gated inwardly rectifying potassium channel) thallium flux, FluoZin2; at 10 µM; stronger effect = higher value; submaximal glutamate (EC20) added with thallium.
Sequence of UniProt P70579 (P70579 whole entry, looked up): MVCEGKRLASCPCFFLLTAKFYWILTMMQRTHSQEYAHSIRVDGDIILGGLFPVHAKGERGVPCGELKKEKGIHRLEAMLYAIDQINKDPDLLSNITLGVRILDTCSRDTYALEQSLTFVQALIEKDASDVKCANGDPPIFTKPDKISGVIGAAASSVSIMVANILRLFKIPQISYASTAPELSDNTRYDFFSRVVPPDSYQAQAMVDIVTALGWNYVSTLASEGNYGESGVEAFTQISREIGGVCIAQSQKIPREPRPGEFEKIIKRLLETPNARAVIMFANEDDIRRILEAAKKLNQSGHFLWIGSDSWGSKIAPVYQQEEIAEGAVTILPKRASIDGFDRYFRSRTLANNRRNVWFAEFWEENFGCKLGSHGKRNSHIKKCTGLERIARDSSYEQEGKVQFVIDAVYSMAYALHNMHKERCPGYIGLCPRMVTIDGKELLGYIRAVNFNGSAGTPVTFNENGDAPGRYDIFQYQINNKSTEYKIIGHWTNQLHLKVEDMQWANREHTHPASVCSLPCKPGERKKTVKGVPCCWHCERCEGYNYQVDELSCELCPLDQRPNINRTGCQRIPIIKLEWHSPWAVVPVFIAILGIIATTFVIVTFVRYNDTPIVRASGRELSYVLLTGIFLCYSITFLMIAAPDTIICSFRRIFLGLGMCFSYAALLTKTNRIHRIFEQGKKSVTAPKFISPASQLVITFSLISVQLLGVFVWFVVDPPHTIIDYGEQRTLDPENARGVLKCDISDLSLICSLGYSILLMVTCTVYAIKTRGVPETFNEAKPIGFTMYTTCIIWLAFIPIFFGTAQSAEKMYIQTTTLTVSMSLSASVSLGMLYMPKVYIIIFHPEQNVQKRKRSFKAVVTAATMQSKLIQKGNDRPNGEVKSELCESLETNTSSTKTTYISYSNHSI
For `CCOC(=O)C1CCCN(C(=O)Cn2cccc2C(=O)c2ccccc2)C1` (stereo unspecified), the z-score is -1.33.

The compound `COCC(=O)Nc1cc(C(=O)NCC(C)C)ccc1Cl` yielded a z-score of 0.407.

`O=C(O)c1ccn(Cn2cnc3ccccc32)n1`: the z-score was 0.63.

Turning to `O=c1c[n+]([O-])c2ccccc2n1OCc1ccccn1`, the z-score was -0.45.

Compound `O=C(N1CCOCC1)N1CCN(c2ccccn2)CC1` had a z-score of 0.532.

On to `Fc1ccc(N/N=C/C=C/c2ccccc2)c(F)c1`, for which the z-score worked out at 0.312.

`CCN(CC)CCNC(=O)Cn1nc(-c2ccccc2)c2ccccc2c1=O` gave a z-score of 0.617.

Take `CCCCC(=O)Nc1ccc(NC(=S)NC(=O)CC(C)C)cc1OC`: the z-score is -0.318.

For the compound `Cc1cccc(OCCC(=O)Nc2c(C)n(C)n(-c3ccccc3)c2=O)c1`, the z-score was -0.253.

With `Cc1ccc(-c2nn3c(C)nnc3s2)cc1NC(=O)c1cccnc1`, the z-score was -1.54.

On to `CCN1CCN(Cc2nc3c(c(=O)[nH]c(=O)n3C)n2Cc2ccccc2Cl)CC1`, for which the z-score is -0.0236.

The compound `CCOc1ccc(CNc2ccc(N3CCOCC3)c(C(=O)O)c2)cc1` registered a z-score of 0.0248.

Take `CCOC(=O)C1CCN(C(=O)COc2ccc(S(=O)(=O)NC(C)(C)C)cc2)CC1`: the z-score was -0.34.

As for `O=S(=O)(c1cccs1)N1CCN(CC(O)COc2cc(Cl)ccc2Cl)CC1` (stereo unspecified), the z-score is -1.86.

With `CCn1cc(Cl)c(C(=O)Nc2nc3ccccc3n2CCN2CCCCC2)n1`, the z-score is -0.53.

As for `Cn1cc([N+](=O)[O-])c(C(=O)Nc2ccn(Cc3c(F)c(F)cc(F)c3F)n2)n1`, the z-score was -0.38.

For `COc1ccc(OC)c(NC(=S)NCc2cccs2)c1`, the z-score is -0.0175.

Take `CCCCCCCCCOC(=O)C(CC(=O)O)N1CCOCC1` (stereo unspecified): the z-score turned out to be 0.209.

As to `C/C(CC(=O)NCc1ccco1)=N\NC(=O)C(c1ccccc1)c1ccccc1`, the z-score was -0.174.

As for `Cc1c(NC(=O)CSc2nnnn2-c2ccc(O)cc2)c(=O)n(-c2ccccc2)n1C`, the z-score was -0.109.

`CC1(C)CCN(Cc2ccccc2)C1CC#N` (stereo unspecified): the z-score is 0.531.

In the case of `CCCC(=O)Nc1ccc(C(=O)/C=C/c2ccc(SC)cc2)cc1`, the z-score was -0.272.

On to `Cc1cccc(-n2cnc(C(=O)N/N=C/c3ccccc3)c2)n1`, for which the z-score was -0.311.

`COc1ccccc1NS(=O)(=O)c1cc(NC(=O)c2cc3ccccc3oc2=O)ccc1C`: the z-score is -0.257.

Compound `C=C(C)CNC(=S)N/N=C/C1=CCC2CC1C2(C)C` (stereo unspecified) yielded a z-score of 0.611.

Take `O=C(COc1ccccc1Cl)Nc1cc(Cl)ccc1Oc1ccccc1`: the z-score is -0.0408.

On to `COc1ccccc1NC(=O)C1=C(C)Nc2ncnn2C1c1cccs1` (stereo unspecified), for which the z-score is -0.283.

As for `Cc1onc(C(=O)/C=C/N(C)C)c1C(=O)Nc1nccs1`, the z-score was -0.266.

As for `O=C1c2ccccc2C(=O)N1CCSc1ncn[nH]1`, the z-score was 0.252.

`CCOC(=O)c1cnc(-n2nc(C)cc2C)nc1Nc1ccccc1OC` registered a z-score of 0.0785.

`CCOC(=O)c1cnc(SC)nc1Nc1cccc(F)c1` came in with a z-score of 0.141.

In the case of `CCc1ccc(-c2cn(-c3nc(C)cc(C)n3)c(=N)o2)cc1`, the z-score was -0.136.

Turning to `CCOC(=O)N1CCN(Cc2nc(-c3ccc(OC)cc3)no2)CC1`, the z-score came to 0.0937.

On to `Cc1ccc2nc(C)c(C(=O)N/N=C/c3cccs3)cc2c1`, for which the z-score was -0.15.

The compound `Clc1ccc(CSc2nnc(-c3ccccn3)n2Cc2ccco2)c(Cl)c1` yielded a z-score of 0.104.

Compound `O=C(CSc1ccc(-c2cccs2)nn1)NCc1ccccc1Cl` returned a z-score of 0.0392.

As to `O=C(Cn1cnc2c(cnn2-c2ccccc2)c1=O)NCCc1ccccc1`, the z-score was -0.233.

Regarding `CC1(c2ccc(OC(F)F)cc2)NC(=O)N(CC(=O)Nc2ccc3c(c2)OCO3)C1=O` (stereo unspecified), the z-score was -0.263.

Regarding `Cc1ccc(NC(=O)c2cc(S(=O)(=O)Nc3ccc(C)cc3)cs2)cc1`, the z-score was -0.235.

`C=CCc1ccccc1OCC(O)CN1CCN(c2ccccc2F)CC1` (stereo unspecified) yielded a z-score of 0.0351.

As for `Cc1cc(=O)[nH]c(-n2nc(C)c(Oc3ccccc3O)c2C)n1`, the z-score was -0.0623.

In turn, `O=C(Nc1ccccc1)N(Cc1ccccc1)C1=NCCS1` gave a z-score of 0.0189.

In the case of `Cc1ccc(SCC(=O)NC(=O)NCc2ccco2)cc1C`, the z-score was -0.239.

For `Clc1cc(Br)ccc1OCCn1ccnc1`, the z-score stood at 0.187.

`O=c1[nH]c2ccc(Cl)cc2c(O)c1-c1ccccc1`: the z-score was -0.00451.

In the case of `Cc1ccc(S(=O)(=O)Nc2cccc(NC(=O)CN3CCCCC3)c2)cc1`, the z-score is -0.385.

For the compound `COc1ccccc1OC(C)C(=O)Nc1nc(-c2ccc(S(=O)(=O)N3CCOCC3)cc2)cs1` (stereo unspecified), the z-score was -0.0764.

Regarding `Cn1cccc1Cc1nnc(SCC(=O)Nc2ccccc2F)n1-c1ccc(F)cc1`, the z-score is -0.0639.

The compound `O=C(CNC(=O)c1cccs1)NC1=NCCS1` had a z-score of 0.647.

Take `O=C1N(CCCCN2C(=O)C3(OCCO3)c3ccccc32)c2ccccc2C12OCCO2`: the z-score was -0.00606.

`COc1ccc(OCCCON2C(=O)c3ccccc3C2=O)cc1`: the z-score was -0.357.

Regarding `CCc1ccc2nc(N3C(=O)C(O)=C(C(=O)c4ccco4)C3c3cccs3)sc2c1` (stereo unspecified), the z-score is -1.1.

As for `COc1ccc(/C=N\NC(=O)CCN2CCN(c3ccccc3)CC2)cc1OC`, the z-score was -0.199.

For `O=c1[nH][nH]c(-c2ccccc2O)c1C(C[N+](=O)[O-])c1ccccc1` (stereo unspecified), the z-score was -0.052.

`O=C(O)C1C(c2ccccc2)C(C(=O)Oc2ccccc2)C1c1ccccc1` (stereo unspecified): the z-score is -0.122.

As for `COc1ccccc1OCCn1cc(C#N)c2ccccc21`, the z-score was -0.18.

On to `Cc1nc2cc(-c3cccc(F)c3)nn2c(C)c1CCC(=O)NC(C)CCc1ccco1` (stereo unspecified), for which the z-score is -0.697.

As for `CC(=O)c1cc(-c2ccccc2)[nH]c1N1CCCC1`, the z-score was -0.0239.

Take `COC(=O)COc1ccc(/C=N/NC(=O)c2ccc(N(Cc3ccccc3)S(C)(=O)=O)cc2)cc1`: the z-score was -1.39.

Compound `O=C(NC1CCN(Cc2ccccc2)CC1)C12CC3CC(CC(C3)C1)C2` displayed a z-score of 1.2.

Consider `O=C(/C=C/c1cc([N+](=O)[O-])ccc1OC(F)F)NCc1ccc(F)cc1`, for which the z-score was -0.205.

As to `O=C(c1ccc(Br)cc1)N1CCN(S(=O)(=O)c2ccccc2)CC1`, the z-score is -0.654.

Turning to `CCOC(=O)c1cc(C)sc1/N=C/C1C(=O)CCCC1=O`, the z-score is -0.435.

`O=C(NCC(=O)N(CCc1ccccc1)C(C(=O)NC1CCCC1)c1cccnc1)c1ccco1` (stereo unspecified) returned a z-score of 0.363.

Regarding `CC(=O)Nc1ccc(/C=N/NC(=O)c2cc3cc(C)ccc3nc2C)cc1`, the z-score is -0.796.

`COc1ccc(/C=C/C(=O)Nc2nonc2NC(C)=O)cc1` yielded a z-score of 0.105.

Take `COC(=O)c1ccccc1S(=O)(=O)N1Cc2cc([N+](=O)[O-])ccc2Oc2ccccc21`: the z-score is -0.935.

Consider `O=C(COc1ccc(C(=S)N2CCOCC2)cc1)N1CCCC1`, for which the z-score was -0.301.

As for `COc1ccc(-c2cc(C(F)(F)F)nc(SCCC(=O)NCc3ccco3)n2)cc1`, the z-score was -0.0113.

In turn, `COc1ccc(/C=C2\CCCC3C2=NN(C(=O)COC(=O)CNC(=O)c2ccccc2)C3c2ccc(OC)cc2)cc1` (stereo unspecified) displayed a z-score of 0.0844.

For `S=C(Nc1ccccc1)N1N=CCC1c1ccccc1` (stereo unspecified), the z-score was -0.0985.

On to `Nc1ccc(C(=O)OCC(=O)N2CCOCC2)cc1[N+](=O)[O-]`, for which the z-score is -0.0687.

For `CCN(CC)CCOc1ccc2nc(N(C)C)sc2c1`, the z-score was -0.36.

For the compound `O=C(NCc1ccc(N2CCCC2=O)cc1)NC1CCCCC1`, the z-score was determined as 1.5.

As to `COc1ccc(OC)c(C2C(C#N)=C(N)Oc3c2c(C)nn3-c2ccc(C)cc2)c1` (stereo unspecified), the z-score was -1.

In turn, `CSCC[C@H](NC(=O)OCc1ccccc1)C(=O)O` showed a z-score of 0.0269.

Turning to `Cc1ccc(SCc2[nH]nc3c2C2(C(=O)N(C)c4ccccc42)C(C#N)=C(N)O3)cc1` (stereo unspecified), the z-score was found to be 0.00725.

With `S=C(Nc1ccccc1Cl)N(CCCN1CCOCC1)Cc1ccco1`, the z-score was -0.532.

On to `Nc1c(C(=O)c2ccccc2)sc2snc(SCC(=O)c3ccccc3)c12`, for which the z-score is -0.438.

Turning to `COCCN1Cc2cccc(C(=O)NC(C)c3cccs3)c2C1=O` (stereo unspecified), the z-score is -1.13.

As to `O=C(Nc1ccc(Br)cc1)c1ccco1`, the z-score came to 0.0377.

`Cc1cc(C)nc(NC(=O)c2ccc(Cl)cc2[N+](=O)[O-])c1`: the z-score is -0.377.

Take `OCCCc1nc2n(n1)C(c1ccccc1)C=C(c1ccccc1)N2` (stereo unspecified): the z-score is -0.449.

`COC(=O)C(O)(CC(=O)Nc1ccccc1OC)C(F)(F)F` (stereo unspecified) yielded a z-score of 0.901.

As for `Cc1cccc(NC(=S)NC(=O)CCc2ccccc2)c1`, the z-score is 2.74.

For `CCCCCC(=O)NC(NC(=S)Nc1ccc(S(N)(=O)=O)cc1)C(Cl)(Cl)Cl` (stereo unspecified), the z-score is -0.128.

Regarding `COC(=O)c1sc2ncccc2c1OCc1ccc(Cl)cc1`, the z-score was -0.0869.

Turning to `O=C(NCc1ccccc1)[C@@H]1CSC2c3ccccc3C(=O)N21` (stereo partly specified), the z-score is -0.264.

Consider `Brc1cccc(-c2nnc3sc(CNCc4ccco4)cn23)c1`, for which the z-score was -0.812.

The compound `CCOC(=O)COn1c(=O)c(-c2ccc(OC)c(OC)c2)[n+]([O-])c2ccccc21` gave a z-score of 0.69.

Regarding `O=C(NCC1CCCO1)C(C(=O)c1ccccc1)n1cc(Cl)ccc1=O` (stereo unspecified), the z-score is -0.0542.

For `CCOC(=O)C(C#N)C(Cc1ccccc1)c1ccco1` (stereo unspecified), the z-score is -0.32.

For the compound `COc1ccc(-c2cc(-c3ccc(F)cc3)nc(N3CCN(C)CC3)n2)cc1`, the z-score was determined as 0.083.

`CCOC(=O)N1CCC(Nc2ncnc3c2cnn3-c2ccc(C)cc2C)CC1`: the z-score was -1.15.

Turning to `CCCCNC(=O)CSc1cc(=O)n(C)c2ccccc12`, the z-score was -0.878.

Take `O=C(O)C1Cc2[nH]cnc2C(c2ccccc2O)N1` (stereo unspecified): the z-score is -0.212.

In the case of `COc1cc2c(cc1OC)CN(C(=O)CC1CC3CCC1C3)CC2` (stereo unspecified), the z-score was -0.444.

In turn, `COc1cccc(NC(=O)N2CCC(C(=O)Nc3ccc(C)cc3C)CC2)c1` returned a z-score of 0.871.

Consider `N#Cc1ccc(C(=O)NCC(c2ccco2)N2CCCC2)cc1` (stereo unspecified), for which the z-score came out at 0.0484.

As for `COc1ccc(N(CC(=O)Nc2ccc(S(=O)(=O)N3CCCCC3)cc2)S(C)(=O)=O)cc1OC`, the z-score was -0.135.

`CCn1c(SCC(=O)N2CCCCC2)nc(O)cc1=O`: the z-score was -0.258.

As for `CCn1ccc(C(=O)Nc2ccc(S(=O)(=O)Nc3ccccc3OC)cc2)n1`, the z-score is -0.423.

For the compound `Cc1ccc(Cn2ncc(Cl)c(Cl)c2=O)cc1`, the z-score is -0.51.

For `CCOc1cccc(C(=O)Nc2ccc3oc(Cc4ccc(Cl)cc4)nc3c2)c1`, the z-score was -0.351.

Turning to `COC(=O)C1=C(C)N(Cc2cccnc2)C(=O)C1`, the z-score was -0.233.

On to `Cc1ccn2cc(CCNC(=O)C3CCCCC3)nc2c1`, for which the z-score is -0.0264.

In turn, `COc1ccc(C(=O)Nc2ccccc2-c2nnn(CC(=O)NCc3ccco3)n2)cc1` had a z-score of 0.233.

As for `CC(=NCc1ccco1)c1c(O)n(C2CCCCC2)c(=O)[nH]c1=O`, the z-score is -0.28.

For the compound `CCOC(=O)c1sc2ccccc2c1OC(=O)c1ccc(C)cc1`, the z-score is -0.233.

In the case of `Cn1c(N)c(C(c2ccccc2)c2c(N)n(C)c(=O)n(C)c2=O)c(=O)n(C)c1=O`, the z-score is -0.545.

Regarding `Cc1nn(Cc2ccc([N+](=O)[O-])cc2)c(=O)n1-c1ccc(F)cc1`, the z-score was 0.00991.
